Laboratory results as given in PubChem BioAssay AID720709 (National Center for Advancing Translational Sciences (NCATS), 2013).
Screen size: about 360,000 compounds; about 520 (0.14%) were called active. The shares of active, inactive and inconclusive entries below differ from those in the screen. Calls come from the whole dose curve; as a rule, active = well fitted inhibition curve with a large enough effect; inconclusive = small, poorly fitted or top-dose-only effect; inactive = no such curve, though single readings can be large or run the other way. Potencies of inconclusive entries are left out as doubtful fits.

Each compound was assayed against Rap guanine nucleotide exchange factor 3 (Homo sapiens) (UniProt O95398) (assay: qHTS for Antagonist of cAMP-regulated guanine nucleotide exchange factor 3 (EPAC1): primary screen). Conditions: EPAC1 GEF assay, Rap1b-BODIPY-GDP exchange fluorescence; activity change, negative = inhibition: at 115 µM (top of the series).
Note: nearly all actives have a fitted effect of over 50% in size.
Potency is the fitted concentration of half-maximal effect; tags give direction and shape of the fitted curve.
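Throughout, for activity change, negative = inhibition: plate controls were vehicle for no effect and positive control for full effect.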

UniProt O95398, sequence (O95398 whole entry, looked up): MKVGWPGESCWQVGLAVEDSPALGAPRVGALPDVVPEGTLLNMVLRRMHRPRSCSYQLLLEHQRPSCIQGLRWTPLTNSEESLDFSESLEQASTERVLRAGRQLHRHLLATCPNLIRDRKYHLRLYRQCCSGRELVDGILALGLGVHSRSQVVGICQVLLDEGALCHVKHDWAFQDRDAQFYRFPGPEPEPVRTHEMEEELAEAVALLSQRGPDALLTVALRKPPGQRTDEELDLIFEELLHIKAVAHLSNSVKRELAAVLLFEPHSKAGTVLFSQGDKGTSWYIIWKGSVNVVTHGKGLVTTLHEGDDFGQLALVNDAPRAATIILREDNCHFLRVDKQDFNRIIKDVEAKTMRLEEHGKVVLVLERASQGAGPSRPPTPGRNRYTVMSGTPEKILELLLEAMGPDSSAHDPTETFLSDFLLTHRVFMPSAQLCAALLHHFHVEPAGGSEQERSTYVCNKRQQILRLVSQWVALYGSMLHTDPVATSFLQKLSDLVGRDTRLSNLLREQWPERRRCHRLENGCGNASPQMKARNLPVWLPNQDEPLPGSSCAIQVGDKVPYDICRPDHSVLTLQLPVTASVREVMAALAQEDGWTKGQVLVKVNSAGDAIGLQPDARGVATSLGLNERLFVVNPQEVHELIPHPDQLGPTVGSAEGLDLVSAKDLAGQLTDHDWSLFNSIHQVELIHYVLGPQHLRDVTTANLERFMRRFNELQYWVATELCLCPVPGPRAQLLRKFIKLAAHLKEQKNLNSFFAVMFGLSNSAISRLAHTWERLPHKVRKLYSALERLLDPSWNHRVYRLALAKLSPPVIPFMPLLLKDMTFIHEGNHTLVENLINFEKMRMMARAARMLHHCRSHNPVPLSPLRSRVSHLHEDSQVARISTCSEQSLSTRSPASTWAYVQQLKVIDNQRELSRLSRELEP

Row | Compound | Potency | activity change, negative = inhibition
1 | ClC(Cl)(Cl)c1nc2ccccc2n2nncc12 | inconclusive [inhibitor, full curve, poor fit] | –
2 | COc1ccccc1OCCNc1ccc(S(=O)(=O)N2CCCC2)cn1 | inactive | –
3 | Cc1ccc(-c2cc(C(F)F)n3ncc(C(=O)N4CCCc5ccccc54)c3n2)cc1 | inactive | –
4 | CCCCN(C)C(=S)Nc1ccc2nc(N3CCN(CC)CC3)cc(C)c2c1 | inconclusive [inhibitor, full curve, poor fit] | –
5 | C/C(=N\NC1=NCCN1)c1ccc(N)c([N+](=O)[O-])c1 | inconclusive [inhibitor, partial curve] | –
6 | CCOc1ccc(C2NC(=O)C(C#N)=C(S)N2c2ccc(C)cc2)cc1OC (configuration not stated) | inactive | –
7 | CN(C)S(=O)(=O)c1cccc(COC(=O)Cc2c(F)cccc2Cl)c1 | inconclusive [inhibitor, partial curve, poor fit] | –
8 | Cc1cc(C)n(Cc2ccc(Cl)cc2Cl)c(=O)c1S(=O)(=O)c1ccccc1 | inactive | –
9 | O=C(Cn1cc(C(F)(F)F)cc(Cl)c1=O)NCc1ccc(F)cc1 | inactive | –
10 | CN(C)S(=O)(=O)c1cccc(N=C2SCCN2Cc2ccccc2)c1 | inconclusive [inhibitor, full curve, poor fit] | –
11 | COc1cccc(CNC(=O)[C@@H]2CCCN2C(=O)[C@H]2CCCCN2C(=O)c2cccs2)c1 | inactive | –
12 | O=C(c1cc(COc2ccc(-n3cncn3)cc2)on1)N1CCCC1 | inactive | –
13 | CCOC(=O)Nc1ccccc1C(=O)Nc1cc(C)cc(C)c1 | inconclusive [inhibitor, single point] | –
14 | O=C1Cc2ccccc2C(=O)N1 | active: 56.2 µM | –
15 | O=C(CN1C(=O)c2ccccc2C1=O)Nc1ccccc1C(=O)NC1CCCCCC1 | inconclusive [inhibitor, single point] | –
16 | CCCN1CCN(CCCNC(=O)c2ccc3nc(N4CCCCC4)sc3c2)CC1 | inconclusive [inhibitor, single point] | –
17 | COc1cc(Nc2cc(C)nc3ncnn23)cc(OC)c1 | inconclusive [inhibitor, single point] | –
18 | O=C(O)c1ccccc1CC(CCc1ccccc1)C(=O)O (configuration not stated) | inactive | –
19 | Cc1cccc(Cn2cnc3ccccc32)c1 | inactive | –
20 | Cc1ccc(C)c(C(=O)OCC(=O)N(C)c2ccccc2)c1 | inconclusive [inhibitor, full curve] | –
21 | CC(C)OC(=O)/C(=C/c1ccc2c(c1)c1ccccc1n2C)NC(=O)c1ccccc1 | inconclusive [inhibitor, single point] | –
22 | COc1ccccc1-c1cc(C(=O)N/N=C\c2cn(C)nc2C)c2ccccc2n1 | inconclusive [inhibitor, single point] | –
23 | CCOC(=O)C1=C(CN2CCN(C(=O)c3ccco3)CC2)NC(=O)NC1c1ccc(C)cc1 (configuration not stated) | inconclusive [inhibitor, full curve, poor fit] | –

Row | Compound | Potency | activity change, negative = inhibition
24 | O=C(CCc1nc2ccccc2[nH]1)NCc1ccc2c(c1)OCO2 | inactive | –
25 | COc1ccccc1CCNC(=O)C(=O)NCC1OCCN1S(=O)(=O)c1ccc2c(c1)OCCO2 (configuration not stated) | inconclusive [inhibitor, partial curve] | –
26 | O=S(=O)(c1ccc(F)cc1)N1CCN(CC(O)COCc2cccs2)CC1 (configuration not stated) | inactive | –
27 | COc1ccc(CCNC(=O)Nc2ccccc2[N+](=O)[O-])cc1 | inconclusive [inhibitor, full curve, poor fit] | –
28 | COc1ccc(C(=O)NC2CCN(CC(=O)NCc3ccccc3F)CC2)cc1 | inconclusive [inhibitor, single point] | –
29 | O=C(N/N=C/c1ccccc1O)c1cccc2ccccc12 | inconclusive [inhibitor, full curve, poor fit] | –
30 | O=C(NN1C(=O)/C(=C/c2cccc(O)c2)SC1=S)c1ccccc1O | inconclusive [inhibitor, partial curve] | –
31 | O=C(NC1=NCCS1)C1CCN(S(=O)(=O)c2cc([N+](=O)[O-])ccc2Cl)CC1 | inconclusive [inhibitor, single point] | –
32 | NC(=S)N=Nc1c(O)n(CC(=O)Nc2ccccc2)c2ccccc12 | inactive | –
33 | O=C(Nc1nccs1)C(NS(=O)(=O)c1ccc(Br)s1)c1ccccc1 (configuration not stated) | inactive | –
34 | O=C(O)Cc1ccc(C(=O)CSc2ccccc2)s1 | inconclusive [inhibitor, partial curve] | –
35 | O=C(O)CCCN1C(=O)/C(=C\c2ccc(-c3nc4ccccc4s3)o2)SC1=S | inactive | –
36 | COCCNC(=O)c1ccc2c(c1)ncn2-c1cccc(C)c1 | inconclusive [inhibitor, single point] | –
37 | O=C(NCc1ccc2c(c1)OCO2)c1cc(-c2ccccc2)c(N2CCOCC2)s1 | inconclusive [inhibitor, partial curve] | –
38 | CC(C)CCNC(=O)C(c1ccco1)N(Cc1ccccc1)C(=O)c1snc(C(N)=O)c1N (configuration not stated) | inconclusive [inhibitor, single point] | –
39 | O[C@@H]1CN(Cc2ccccc2Cl)CC[C@H]1N1CCOCC1 | inconclusive [inhibitor, single point] | –
40 | Cc1ccc(/C=N/NC(=O)c2cc3ccccc3cc2O)o1 | inconclusive [inhibitor, partial curve] | –
41 | OC(c1cc(F)cc(Cl)c1)c1ncc(-c2cccc(C(F)(F)F)c2)[nH]1 (configuration not stated) | inconclusive [inhibitor, partial curve] | –
42 | O=C(COC(=O)c1ccco1)Nc1nc2c(F)c(F)c(F)cc2s1 | inconclusive [inhibitor, full curve, poor fit] | –
43 | COc1ccc(C2CC=C(C(C)=O)CN2S(=O)(=O)c2ccccc2)cc1 (configuration not stated) | inconclusive [inhibitor, partial curve] | –
44 | CCc1ccc(Cn2nnc(C(=O)Nc3ccc(OC)cc3OC)c2N)cc1 | inconclusive [inhibitor, single point] | –
45 | CN(C)S(=O)(=O)c1ccc(NC(=O)CN2CCCC2c2ccc3c(c2)OCCCO3)cc1 (configuration not stated) | inconclusive [inhibitor, full curve, poor fit] | –
46 | N=c1c(S(=O)(=O)c2ccccc2)cc2c(=O)n3ccccc3nc2n1C1CCCC1 | inactive | –

Row | Compound | Potency | activity change, negative = inhibition
47 | COc1cc2c(cc1OC)/C(=C/C(=O)c1ccc(OC)c([N+](=O)[O-])c1)NCC2 | inconclusive [inhibitor, full curve, poor fit] | –
48 | Cc1ccc(O)c(C(=O)CC(=O)c2ccc(Cl)cc2)c1 | – | inconclusive: -30.9% [inhibitor]
49 | OC(CON=C1c2ccccc2-c2ccccc21)CN1CCNCC1 (configuration not stated) | inactive | –
50 | CCOC(=O)N1CCN(C(=S)NC(=O)c2ccc(F)cc2)CC1 | inactive | –
51 | CCOc1ccc(OCCCC(=O)N(CC)CC(=O)Nc2c(F)cccc2F)cc1 | inconclusive [inhibitor, partial curve, poor fit] | –
52 | COc1ccnc(Oc2cccc(C(F)(F)F)c2)c1C(=O)N/C=N/OCc1ccccc1F | inconclusive [inhibitor, partial curve] | –
53 | COc1cccc2cc(C(C)N(CCCN3CCOCC3)C(=S)Nc3cccc(C)c3)oc12 (configuration not stated) | active: 56.2 µM | –
54 | CC(C)Cn1c(SCC(=O)N2CCc3ccccc3C2)nc(O)cc1=O | inconclusive [inhibitor, partial curve] | –
55 | Cc1ccc(S(=O)(=O)/N=C(/Nc2ccc3[nH]c(=O)[nH]c3c2)c2ccccc2)cc1 | inconclusive [inhibitor, partial curve, poor fit] | –
56 | O/C(=C\c1nc2ccccc2[nH]1)c1cccs1 | inactive | –
57 | CCCN(CCC)Cc1c(C(=O)N/N=C/c2ccsc2)nnn1-c1nonc1N | inconclusive [inhibitor, single point] | –
58 | CCN(C(=O)COc1ccc(C(C)=O)cc1)c1cccc2ccccc12 | inconclusive [inhibitor, partial curve] | –
59 | Cn1cc(Cl)c(C(=O)Nc2cnn(Cc3ccc(F)cc3)c2)n1 | inconclusive [inhibitor, single point] | –
60 | CCCOc1ccc(NC(=O)CNC(=O)c2cc(OC)cc(OC)c2)cc1OCCC | inconclusive [inhibitor, partial curve, poor fit] | –
61 | C/C(=N\N=C1/NC(=O)C(C)S1)c1ccco1 (configuration not stated) | inconclusive [inhibitor, single point] | –
62 | CCOc1ccccc1N(CC(=O)NC1CCCC1)S(=O)(=O)c1ccc(C)cc1 | inconclusive [inhibitor, single point] | –
63 | CCN1C(=O)[C@@H]2Cc3c([nH]c4ccccc34)C(c3ccc(OC)cc3)N2C1=S (some centres not stated) | inconclusive [inhibitor, partial curve] | –
64 | Cc1cc(C)c2sc(N(CCCN(C)C)C(=O)c3ccc(S(=O)(=O)N4CCCc5ccccc54)cc3)nc2c1 | inconclusive [inhibitor, partial curve] | –
65 | O=C(CNC(=O)c1cncc(Br)c1)Nc1ccc(F)c(F)c1F | inconclusive [inhibitor, single point] | –
66 | Cc1ccc(-c2cc(C(=O)N/N=C/c3ccc(F)cc3)n[nH]2)o1 | inconclusive [inhibitor, partial curve] | –
67 | CC(NC(=O)COC(=O)CCc1ccccc1)c1ccccc1 (configuration not stated) | inconclusive [inhibitor, single point] | –
